According to the supplement of paper PMC3334620:
The full ranking holds about 33,000 sequences; the median of “E-score (-0.5 to 0.5)” is about -0.017, and the highest 2% start at about 0.3. The list shows a part of the results.

The sequences below were run against T1, Sut1 (UniProt P53032) (assay: PBM E-score (8-mer binding enrichment) (E-score (-0.5 to 0.5)); higher = stronger / more preferred TF binding; most listed sequences are background and not binding sites). Details: protein concentration: 200 nM; construct: GST-full length.
T1 sequence: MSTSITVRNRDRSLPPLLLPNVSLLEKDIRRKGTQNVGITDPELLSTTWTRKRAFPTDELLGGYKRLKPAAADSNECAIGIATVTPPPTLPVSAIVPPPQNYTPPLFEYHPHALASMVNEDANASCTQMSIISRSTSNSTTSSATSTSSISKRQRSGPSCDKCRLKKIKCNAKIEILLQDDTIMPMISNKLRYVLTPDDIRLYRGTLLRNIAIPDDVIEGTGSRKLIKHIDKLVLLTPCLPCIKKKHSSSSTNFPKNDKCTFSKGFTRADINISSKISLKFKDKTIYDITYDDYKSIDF
Procedure: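 Universal 'all 10-mer' protein binding microarrays (Agilent AMADID 015681) probed with GST-tagged S. cerevisiae TFs (full-length or DBD) made by in vitro transcription/translation (PURExpress), about 100-200 nM. Bound TF was detected with fluorescent anti-GST. Each ungapped 8-mer (which stands for itself and its reverse complement) is scored by the PBM enrichment score (E-score), a modified Wilcoxon-Mann-Whitney statistic from -0.5 to +0.5, computed with the Universal PBM Analysis Suite. Scale: above 0.35 generally sequence-specific binding.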

Sequence | PBM E-score
ATGCTGCG | -0.181
CTCAAACC | 0.0169
AATGGCGG | -0.00582
AATCGGTC | 0.0679
GTACAGAC | -0.0712
ACTAGTTG | 0.006
CGAGGGAG | -0.136
CCATCTTA | -0.0249
CACAGTAG | -0.14
CCGATACA | 0.0258
CCCTCTGC | -0.307
GAACTTAA | 0.11
TTAACGAA | 0.139
AGGCACGC | -0.0142
GTATGACA | 0.0746
ATGAGAGC | -0.152
ATCATTGA | 0.239
CTTCCGCC | -0.0457
GTAACATA | 0.012
CCACTATC | 0.0221
GTTTGCTA | 0.13
CAGTTTCA | -0.0612
CGTCTATC | -0.00556
CGAACTAG | 0.0397
CTTGTAGA | -0.151

Sequence | PBM E-score
GTACCCAC | -0.0135
CATAGTAC | 0.0294
GGTTCCGA | 0.161
GAACCCTC | -0.17
ATCCGAAG | 0.101
TTCCGCAA | 0.166
AGGCGCAA | 0.106
ATATCCCG | 0.0307
AGACCGCC | -0.118
ATCACCAA | 0.0304
CCCGGACG | -0.12
ATCCCACC | -0.0109
CCCAGAGG | -0.236
CGCATTTA | 0.243
CGGTGGGC | -0.0785
CAACCTTG | -0.0181
TTGCGCAA | 0.0974
TAGGCGGA | 0.255
AGCAGTGC | -0.233
ACATCGAC | -0.138
TAGGGTCA | -0.235
AATTTACT | 0.282
CTCAGATA | 0.0396
AACTTCGA | -0.017
CAGGCGCA | -0.0986

Sequence | PBM E-score
AAGTATGT | 0.12
CTTATTGC | -0.121
AATAACAT | 0.244
AGAACGTG | -0.0282
GATTAGCC | -0.0982
CAATGCCG | 0.124
AAATACGG | 0.201
TATTCTCA | 0.0471
CTTCGACC | -0.0354
AATTTGCC | -0.00501
ATACCAAT | 0.14
TCTTCGAA | -0.0726
CTAAGAAC | 0.121
ATAAGAAC | 0.286
CACATGAA | -0.0713
ACGAGTAG | 0.0791
CAGCACGG | -0.0137
ATCAGCGG | -0.0118
AACTTATA | 0.31
CCCTAGTC | -0.238
AGGCTCTC | -0.148
CTGACGCA | -0.265
GAAGGCTC | 0.0205
CCACCGTA | -0.097
CCGTGACC | -0.106

Sequence | PBM E-score
CTGTGCAA | -0.217
GCAGTGAA | 0.172
AACGGTGT | -0.149
CACACATA | 0.0589
CAGTACTC | 0.051
TACGTCAA | -0.0371
CCTGAGCG | -0.381
AACTAATG | 0.241
AACCCAGA | -0.012
ATTCCTTA | 0.0361
ACCATTAA | 0.252
ACGGTAAT | -0.0094
AGTGATTC | 0.0201
ACATCAGA | 0.0242
GATGCATC | 0.076
AAAGGCCC | -0.0192
AGCATTCA | -0.137
ATCCATAA | 0.137
GTCCCAAC | -0.138
GACTAATC | 0.0321
GGTCACAA | -0.161
GTAGAGTA | 0.072
CAAGGTGC | -0.0931
ACTAATTC | 0.215
CAGTGAAG | -0.137

Sequence | PBM E-score
CCCCTGGC | -0.366
CGAGATGA | -0.0261
AACCTGGC | -0.0981
ATCTTGGG | -0.174
AGTCTAAC | -0.0149
AAACGCCG | 0.0637
GAGAGGGC | -0.334
ACCTCTGA | -0.0851
ACCGAATG | -0.044
GCAACACA | -0.047
AACCATGT | 0.0208
CCCAAGGA | -0.146
CTCGCCAC | -0.186
CATTTAAC | 0.111
ATTCACCG | 0.202
GTATCGAC | -0.0452
CCGTCAAG | 0.0083
CAACGGGG | -0.0181
ATCACCAT | 0.0974
AACAATAA | 0.192
ATCACATC | 0.0216
AATCTGTA | 0.0605
GTCCTACA | -0.0165
AGCATAAG | -0.0071
GGACGTTA | -0.036

Sequence | PBM E-score
ACTTGATC | 0.137
AGATCTGC | -0.0941
AGACTGCT | -0.192
GCGTTCCC | -0.127
GGTATCCA | -0.055
AAACATCT | 0.132
AGTAATCG | 0.131
ACATCCTG | 0.111
GTTGGTCA | 0.0837
AACTAGCA | -0.0313
AGCATTGC | -0.0883
CGACCGGC | -0.195
ACGTTTCA | 0.051
CGGCAAAG | 0.0412
GGGTACAA | 0.0309
ACCATCAC | 0.055
GCGAACTA | 0.0496
AATAGGCG | 0.106
GACTACCC | -0.104
AAAATCCA | 0.202
CGCCTACC | -0.167
AACTCTGT | -0.0734
AGCCTGTA | 0.0203
GCGTAAGA | 0.13
AGACGTGC | -0.0773

Sequence | PBM E-score
AACGGAGG | -0.0314
ATCCCAAG | 0.0602
GGGCGCTA | -0.166
ACCCACAC | -0.0901
TGTCTAAA | 0.153
ATCTTATC | 0.154
CGTCCAAG | -0.0933
AATCGTTC | 0.0128
ATCTGAAG | -0.0527
AAGTACAG | -0.147
AGTTGATG | 0.0114
CCTGGGTC | -0.228
CGCAGCAA | -0.199
AAATTGCT | 0.0866
GACGCAGA | -0.0808
GGAAGGAC | -0.0551
GAGTTAAA | 0.13
GAGGGCGC | -0.214
CATAGATG | -0.116
GGAGAGCA | -0.125
CAGTAATA | 0.261
CGAGCGGA | 0.0878
